Laboratory results published in the supplement of paper PMC10115384.

B1: ADI-67690 (protein)
chain 1: EVQLVESGGGLVQPGRSLRLSCAAFGFTFDDYAMHWVRQAPGKGLEWVSGISWNSGTIGYVDSVQGRFFISRDNAKNSLYLQMNNLRPEDTAFYYCVKEEGSEKYYYDSSGQGYFDLWGRGTLVTVSS
chain 2: QSVLTQPPSASGTPGQRVTISCSGNSSNIGSNPVNWYQQLPGTAPKLLIYRNNQRPSGVPDRFSGSKSGTSASLAISGLQSEDEADYYCTTWDGSLHGHWVFGGGTKLTVL
B2: ADI-67722 (protein)
chain 1: QVQLQQWGAGLLRPSETLSLTCAVEGESFNSYYWTWIRQPPGKRLEWIAEIQVGEDITYNPSLKSRVSMSFDTSKKQFSLRLTSVTAADTAIYYCARGVQIPEYCSMNNCPVSDHHYFYMDVWGKGTTVTVSS
chain 2: EIVLTQSPGTLSLSPGESATLSCRASQTISSYYLAWYQQKPGQAPRLLIYGASSRATGIPDRFNGSGSGTDFTLTITRLEPEDFAVYHCQQYGGSRPWTFGQGTKVEIK
B3: ADI-67741 (protein)
chain 1: EVQLVESGGGLVRPGGSLRLSCAASGITFTNTWMNWVRQAPGKGLEWVGRIKSKTHGGTTDYGAPVKGRFTISRDDSKNTLFLQLNSLKTEDTAVYYCTTLSGSSQYSSGWYYYFYYMDVWGKGTTVTVSS
chain 2: EIVLTQSPATLSLSPGERATLSCGASQSVSSSYLAWYQQKPGLAPRLLIYDTSTRATGIPDRFSGSGSGTDFTLTISRLEPEDCAVYYCQHYGSSPPYTFGQGTKLEIK
B4: ADI-67744 (protein)
chain 1: EVQLVESGGGLVQPGKSLTLSCAASGFTFEDYAMYWVRQAPGKGPEWVSGISWHSGSIDYADSVKGRFTISRDNAKNSLYLQMNSLRAEDTALYHCAKGKAAGHSYYYGMDVWGQGTTVTVSS
chain 2: DIQMTQSPSSLSASVGDRVTITCRASQSISGFLNWYQQKPGRTPEVLIYAASSLQSGVPSRFSGSESGTDFTLTISSLQPEDFATYYCQQSYVTPWTFGQGTKVEIK
B5: ADI-67747 (protein)
chain 1: QVQLQESGPGLVKPSETLSLTCTVSGASISRYYWSWIRQTPGKGLEWMGCIHDSGSTNYNPSLESRVTISRDTPKNQFSLNLSSVTASDTAVYYCARRGLGYCSTTRCYSAFDIWGQGTMVTVSS
chain 2: DIQMTQSPSSLSASVGDRVTITCRASQSINNYLNWYQQKPGKVPNLLIYGASSLQSGVPSRFSGSGSGTDFTLTINSLQPEDFASYYCQQSYSPPYTFGQGTKLEIK
B6: ADI-67748 (protein)
chain 1: QVQLQESGPGLVKPSQTLSLTCTVSGDSIYSGTYYWNWIRQHPGQGLEWIGYILYSGSTYFNPSLKSRVTMSIDTSKKQFSLRLSSVTAADTAVYYCARSPVIYGTNSGFDYWGQGTLVTVSS
chain 2: ETTLTQSPAFLSATPGDKVNISCKASQDIDAAMNWYQQKPGEAAIFIIQEATTLVPGIPPRFSGSGYGTDFTLTINNIESEDAAYYFCLQHDNFPYTFGQGTKVEIK
B7: ADI-67804 (protein)
chain 1: QITLKESGPTLVKPTQTLTLTCTFSGFSLSTTGEGVGWIRQPPGKALEWLALIYWDDDKRYSPSLKSRLTITKDTSKNQVVLTLTNMDFVDTATYSCAHISCCTTASYNPHFDYWGQGTLVTVSS
chain 2: QSVLTQPPSVSEAPRQRVTISCSGSSSNIGHNAVNWYQHLPGKAPKLVIYYDDLLPSGVSDRFSASKSGTSASLAISGLQSEDEADYYCATWDDSLNVPVFGGGTKLTVL
B8: ADI-67814 (protein)
chain 1: QVQLVESGGGVVQPGRSLRLSCAASGFTFSRFGMHWVRQAPGKGLEWVAVISYDGNNKYYADSVKGRFTISRDTSKTTLYLQMNSLRAEDTAVYYCARDLWYYDRSGLLRHDAFDVWGQGTMVTVSS
chain 2: DIQMTQSPSTLSASIGDRVNITCRASQSISSWLAWYQQKPGKAPKLLIYEASNLETGVPSRFSGRGSGTEFTLAISGLQPDDFATYYCQQYNSYLYSFGQGTKLEIK
B9: ADI-67825 (protein)
chain 1: QVQLQQWGAGLLKPSETLSLTCAVYGGSFSGHYWNWIRQPPGKGLEWIGEINHSGSSNYNPSLRSRVTISVDTSKNQLSLKLSSVTAADTAVYYCVRGRAVTTFFFYYDLDVWGQGTTVTVSS
chain 2: QSVLTQPPSASGTPGQRVAVSCSGSSSNIGSHTVNWYQQLPGTAPKLLIYKNDQRPSGVPDRFSGSKSGTSASLAISGLQSENEGDYYCAAWDDSLNGYVFGTGTKVTVL
B10: ADI-67828 (protein)
chain 1: QVQLQESGPGLVKPSETLSLTCTVSGGFVSKYYWSWIRQPPGKGLECIGYVYSSGSTNYNPSLKSRVTISVDTSKNQFSLKLTSVTAADSAVYYCARRGLGYCDSNNCQSAFDIWGQGTMVTVSS
chain 2: DIQMTQSPSSLSASVGDRVTFTCRASQNIRTYLNWYQQKPGQAPKLLIYAASSLQSGVPSRFSGSGSGTDFTLTISSLQPEDFATYFCQQSYSFLYTFGQGTKVEIK
B11: ADI-67831 (protein)
chain 1: EVQLVESGGGLVQPGRSLRLSCTASAFTSGDYAMSWFRQAPGKGLEWVGFIRSKAFGGTTQYAASVKGRFTISRDDSKSIAYLQMNSLKTEDTAVYYCTLTVTNRYYFHSWGQGTLVTVSS
chain 2: EIVMTQSPATLSVSPGERATLSCRASQSVSSNLAWYQQKPGQAPRLLIYGASTRATGIPARFSGSGSGTDFTLTISSLQSEDFAVYYCQQYNNWFSFGQGTKLEIK
B12: ADI-67838 (protein)
chain 1: QVQLQESGPGLVKPSQTLSLTCTVSGGSIRSGIYYWYWIRQPAGKGLEWIGRIYPSGISDYNPSLKSRVTMSVDTSKNQFSLKLSSVTAADTAVYFCAGDFWNPPWDVWGQGTTVTVSS
chain 2: QSVLTQPPSASGTPGQRVAISCSGSSSNAGRNTVNWYQQVPGTAPKLLIYKNDQRPSGVPDRFSGSKSGTSASLAISGLQSEDEADYYCAAWDDSLNSRQFGGGTQLTVL
B13: ADI-67850 (protein)
chain 1: EVQLVESGGGLVKPGGSLRLSCAASGFTFRSHSINWVRQAPGKGLEWVSSISSTSNYIYYADSVKGRFTISRDNAKNSLYLQMHSLRAEDTAVYYCARDQDSGYDYGFSHFYYGLDVWGQGTTVTVSS
chain 2: DIQMTQSPSSVSASVGDRVTITCRASQGISSWLAWYQQKPGKAPKLLIYAASSLQSGAPSRFSGSGSGTDFTLTISSLQPEDFATYYCQQGNSFPWTFGQGTKVEIK
B14: ADI-67852 (protein)
chain 1: EVQLVESGGGLVQPGRSLTLSCAASGFTFEDFAMHWVRQAPGKGLEWVSGISWNGGIIGYADSVKGRCTISRDNAKNSLYVHIRSLRVEDTALYYCAKDIQFRDRDCTNGVCSVGGFDYWGQGTLVTVSS
chain 2: EIVMTQSPATLSVSPGERATLSCRASQSVSSNLAWYQQKPGQAPRLLIYGAYTRATGIPARFSGSGSGTEFTLTISSLQSEDFAVYYCQQYNKWPPRTFGQGTKLEIK
B15: ADI-67857 (protein)
chain 1: QLQLQESGPGLVKPSETLSLTCSVSGGSISSSDYYWGWIRQPPGKGLEWIGSFYYSGTTYYNPSLKSRVTISVDTSKNHFSLRLSSVTAADTAVYYCAVGGVRFLEWLLQFDYWGQGTLVTVSS
chain 2: QSALTQPPSASGSPGQSVTISCTGTSSDVGASNYVSWYQQHPGKVPKLMIYEVSKRPSGVPDRFSGSKSGNTASLTVSGLQAEDEADYYCSSYAGSSNLVFGTGTKVTVL

Each binder was assayed against SARS-CoV-2 Beta spike pseudovirus (assay: pseudovirus neutralization IC50; higher = weaker neutralization). Settings: system: VSV particle, 293T-ACE2 cells.
Protocol: (§1)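 Single-round reporter pseudovirus mixed with dilutions of yeast-made human IgG and put on ACE2-bearing cells; IC50 from the dose curve.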
In the case of B1, the “pseudovirus neutralization IC50” value is reported as over 1 µg/mL. With B2 the “pseudovirus neutralization IC50” value was 0.255 µg/mL. For B3, the “pseudovirus neutralization IC50” value was over 1 µg/mL. In the case of B4, the “pseudovirus neutralization IC50” value is reported as 0.0272 µg/mL. In the case of B5, the “pseudovirus neutralization IC50” value is reported as over 1 µg/mL. In the case of B6, the “pseudovirus neutralization IC50” value is reported as 0.0322 µg/mL. For B7, the “pseudovirus neutralization IC50” value was over 1 µg/mL. B8 was tested, and the “pseudovirus neutralization IC50” value was over 1 µg/mL. With B9 the “pseudovirus neutralization IC50” value was over 1 µg/mL. In the case of B10, the “pseudovirus neutralization IC50” value is reported as over 1 µg/mL. In the case of B11, the “pseudovirus neutralization IC50” value is reported as over 1 µg/mL. In the case of B12, the “pseudovirus neutralization IC50” value is reported as over 1 µg/mL. With B13 the “pseudovirus neutralization IC50” value was over 1 µg/mL. With B14 the “pseudovirus neutralization IC50” value was over 1 µg/mL. B15 was tested, and the “pseudovirus neutralization IC50” value was 0.0727 µg/mL.

What follows are binders tested against SARS-CoV-2 Delta spike pseudovirus in the same assay as above. Settings: system: VSV particle, 293T-ACE2 cells.
Protocol: as §1
For B1, the “pseudovirus neutralization IC50” value was over 1 µg/mL. For B2, the “pseudovirus neutralization IC50” value was 0.0122 µg/mL. For B3, the “pseudovirus neutralization IC50” value was 0.956 µg/mL. In the case of B4, the “pseudovirus neutralization IC50” value is reported as 0.0102 µg/mL. B5 was tested, and the “pseudovirus neutralization IC50” value was 0.522 µg/mL. For B6, the “pseudovirus neutralization IC50” value was 0.0431 µg/mL. In the case of B7, the “pseudovirus neutralization IC50” value is reported as over 1 µg/mL. For B8, the “pseudovirus neutralization IC50” value was over 1 µg/mL. For B11, the “pseudovirus neutralization IC50” value was 0.832 µg/mL. For B12, the “pseudovirus neutralization IC50” value was 0.987 µg/mL. With B13 the “pseudovirus neutralization IC50” value was over 1 µg/mL. For B14, the “pseudovirus neutralization IC50” value was over 1 µg/mL. With B15 the “pseudovirus neutralization IC50” value was 0.0159 µg/mL.

The binders below were run against SARS-CoV-2 index (Wuhan-Hu-1) spike pseudovirus in the same assay as above. Settings: system: MLV particle, HeLa-ACE2 cells.
Protocol: as §1
In the case of B2, the “pseudovirus neutralization IC50” value is reported as 0.00736 µg/mL. In the case of B4, the “pseudovirus neutralization IC50” value is reported as 0.00748 µg/mL. In the case of B6, the “pseudovirus neutralization IC50” value is reported as 0.00379 µg/mL. B8 was tested, and the “pseudovirus neutralization IC50” value was 0.12 µg/mL. With B13 the “pseudovirus neutralization IC50” value was 0.465 µg/mL. For B14, the “pseudovirus neutralization IC50” value was 0.0605 µg/mL. In the case of B15, the “pseudovirus neutralization IC50” value is reported as 0.00284 µg/mL.

Same assay, conditions: system: VSV particle, 293T-ACE2 cells
B2 was tested, and the “pseudovirus neutralization IC50” value was 0.0282 µg/mL. B3 was tested, and the “pseudovirus neutralization IC50” value was over 1 µg/mL. B4 was tested, and the “pseudovirus neutralization IC50” value was 0.0154 µg/mL. For B5, the “pseudovirus neutralization IC50” value was 0.874 µg/mL. With B6 the “pseudovirus neutralization IC50” value was 0.0082 µg/mL. For B7, the “pseudovirus neutralization IC50” value was over 1 µg/mL. In the case of B8, the “pseudovirus neutralization IC50” value is reported as 0.464 µg/mL. With B9 the “pseudovirus neutralization IC50” value was over 1 µg/mL. B10 was tested, and the “pseudovirus neutralization IC50” value was over 1 µg/mL. In the case of B11, the “pseudovirus neutralization IC50” value is reported as 0.009 µg/mL. For B12, the “pseudovirus neutralization IC50” value was 0.653 µg/mL. With B13 the “pseudovirus neutralization IC50” value was 0.62 µg/mL. In the case of B14, the “pseudovirus neutralization IC50” value is reported as 0.234 µg/mL. In the case of B15, the “pseudovirus neutralization IC50” value is reported as 0.0027 µg/mL.

Each binder was assayed against SARS-CoV-2 Omicron BA.1 spike pseudovirus in the same assay as above. Settings: system: MLV particle, HeLa-ACE2 cells.
Protocol: as §1
With B4 the “pseudovirus neutralization IC50” value was 0.0137 µg/mL. With B6 the “pseudovirus neutralization IC50” value was 4.41 µg/mL. With B8 the “pseudovirus neutralization IC50” value was 3.14 µg/mL. With B13 the “pseudovirus neutralization IC50” value was 5.65 µg/mL. For B14, the “pseudovirus neutralization IC50” value was 1.1 µg/mL. B15 was tested, and the “pseudovirus neutralization IC50” value was 0.0192 µg/mL.

Human monoclonal antibodies (heavy:light variable regions, translated from the printed DNA). IC50 against SARS-CoV-2 spike pseudoviruses, on VSV particles in 293T-ACE2 cells (24 h) or MLV particles in HeLa-ACE2 cells (72 h); lower = stronger; >1.0 µg/ml as printed. No active / inactive call per row; the paper counts an IC50 of 0.4 µg/ml or less on any variant as neutralizing. Only 98 of the paper's 459 antibodies have neutralization values; the two systems are not on one scale.
